The whole screen tested about 310,000 compounds, of which about 14,000 (4.5%) showed an effect of 50% or more. The effect is printed as a negative number. The list shows a part of the results.
Target: human ether-à-go-go-related gene (hERG) potassium channel (human, UniProt Q12809)
Assay: primary screen, population patch clamp on CHO cells stably expressing hERG
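Also: peak tail current of the secondary pulse compared with the same well before compound.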

Sequence of human ether-à-go-go-related gene (hERG) potassium channel (Q12809 whole entry, looked up): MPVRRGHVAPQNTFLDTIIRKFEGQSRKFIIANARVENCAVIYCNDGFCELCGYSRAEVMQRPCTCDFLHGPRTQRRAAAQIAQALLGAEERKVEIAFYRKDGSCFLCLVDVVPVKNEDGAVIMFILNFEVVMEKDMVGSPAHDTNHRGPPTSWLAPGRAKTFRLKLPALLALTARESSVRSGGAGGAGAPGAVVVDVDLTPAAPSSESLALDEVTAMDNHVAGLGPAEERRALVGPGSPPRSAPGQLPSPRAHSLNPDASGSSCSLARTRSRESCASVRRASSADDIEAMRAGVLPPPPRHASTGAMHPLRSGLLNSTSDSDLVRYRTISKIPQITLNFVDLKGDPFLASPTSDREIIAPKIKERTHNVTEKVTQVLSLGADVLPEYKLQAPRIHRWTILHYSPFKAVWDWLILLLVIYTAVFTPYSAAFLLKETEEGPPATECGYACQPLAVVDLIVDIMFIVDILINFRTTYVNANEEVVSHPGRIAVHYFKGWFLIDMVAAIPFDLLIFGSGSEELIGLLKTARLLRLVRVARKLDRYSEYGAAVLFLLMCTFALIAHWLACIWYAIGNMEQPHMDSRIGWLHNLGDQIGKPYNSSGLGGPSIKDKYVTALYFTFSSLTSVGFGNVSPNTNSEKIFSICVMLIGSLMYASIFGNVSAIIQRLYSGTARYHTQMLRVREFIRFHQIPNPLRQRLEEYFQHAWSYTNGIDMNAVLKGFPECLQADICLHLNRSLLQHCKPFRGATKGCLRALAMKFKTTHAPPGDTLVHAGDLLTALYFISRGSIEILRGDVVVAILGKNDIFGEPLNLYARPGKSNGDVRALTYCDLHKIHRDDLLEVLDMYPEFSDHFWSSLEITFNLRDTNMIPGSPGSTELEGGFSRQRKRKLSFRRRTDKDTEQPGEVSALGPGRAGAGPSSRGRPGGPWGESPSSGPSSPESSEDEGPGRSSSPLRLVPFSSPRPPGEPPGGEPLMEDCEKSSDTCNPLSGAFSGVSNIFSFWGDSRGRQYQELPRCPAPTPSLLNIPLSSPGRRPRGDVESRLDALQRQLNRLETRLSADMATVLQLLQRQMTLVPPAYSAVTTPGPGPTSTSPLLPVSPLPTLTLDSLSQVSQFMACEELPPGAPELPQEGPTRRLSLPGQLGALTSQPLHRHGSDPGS

First: CCOC(=O)Cn1nc(C)cc1NC(=O)c1cccnc1
Second: CCOC(=O)Cn1nc(-c2ccccc2)ccc1=O
The “hERG current change (%, negative = inhibition) at 10uM” value of the first is higher: 10% for the first, -32% for the second.

Going from `Cc1ccc(S(=O)(=O)n2[nH]c(=O)c(CCO)c2C)cc1` to `Cc1ccc(/C=C2\Oc3c(ccc(O)c3CN3CCN(CCO)CC3)C2=O)cc1`, the “hERG current change (%, negative = inhibition) at 10uM” value falls from 8.83% to -10.9%.

Going from `O=C(c1ccc(CS(=O)Cc2ccccc2Cl)o1)N1CCN(c2ccccn2)CC1` (stereo not shown) to `O=C(CN1CCN(c2ccccn2)CC1)Nc1ccc(F)c(F)c1`, the “hERG current change (%, negative = inhibition) at 10uM” value falls from -5.66% to -27.6%.

First: CC1CN(c2nc3ccccn3c(=O)c2/C=C(\C#N)C(N)=O)CC(C)O1 (stereo not shown)
Second: COc1ccc(NC(=O)CCN2CC(C)OC(C)C2)c(OC)c1.Cl (stereo not shown)
The “hERG current change (%, negative = inhibition) at 10uM” value of the first is higher: 21.1% for the first, 13.2% for the second.

First: O=C(Nc1cccnc1)c1cc(-c2ccc(Br)cc2)nc2ccccc12
Second: COc1ccccc1CC(=O)Nc1ccc(-c2noc(COc3ccc(Br)cc3)n2)cc1
The “hERG current change (%, negative = inhibition) at 10uM” value of the first is lower: -2.53% for the first, 8.35% for the second.

First: CS(=O)(=O)N(CC(=O)Nc1ccc(C(N)=O)cc1)C1CCCCC1
Second: CC(=O)Nc1ccc(S(=O)(=O)N2CCN3CCCC3C2)cc1 (stereo not shown)
The “hERG current change (%, negative = inhibition) at 10uM” value of the first is lower: 5.95% for the first, 12.1% for the second.

First: COc1ccc(Cl)cc1N(C(C)=O)c1nc(C)cc(C)c1C#N
Second: COc1cc(Cl)c(C)cc1NC(=O)Cc1cccs1
The “hERG current change (%, negative = inhibition) at 10uM” value of the first is higher: 12.1% for the first, 6.37% for the second.

Compared with `COc1ccc(S(=O)(=O)NCc2cccnc2)cc1NC(=O)c1ccccc1`, `O=C(Nc1ccc(S(=O)(=O)Nc2nccs2)cc1)c1cccc(F)c1` is lower in “hERG current change (%, negative = inhibition) at 10uM” value: -3.99% for the first, -7.36% for the second.

Compared with `COc1cc(/C=N/NC(=O)CCN2CCN(Cc3ccccc3)CC2)cc(OC)c1OC`, `COc1ccccc1N1CCN(C(=O)CCC(=O)O)CC1` is higher in “hERG current change (%, negative = inhibition) at 10uM” value: -29.2% for the first, 0.0357% for the second.

Going from `CSCCC(NC(=O)COc1ccccc1)C(=O)NCC1COc2ccccc2O1` (stereo not shown) to `C[C@@H](C(=O)O)[C@H]1C[C@]1(C)[C@H](NC(=O)OCc1ccccc1)c1ccccc1`, the “hERG current change (%, negative = inhibition) at 10uM” value rises from -16.4% to 4.41%.

Going from `O=C(NC12CC3CC(CC(C3)C1)C2)N1CCN(C2CCCCC2)CC1` to `Cc1c(NC(=S)NC(=O)C2CCCCC2)c(=O)n(-c2ccccc2)n1C`, the “hERG current change (%, negative = inhibition) at 10uM” value rises from -30.9% to 10.7%.

Going from `Cc1cccc(C(=O)NC2CC3CCCC(C2)N3S(=O)(=O)c2ccccc2)c1` (stereo not shown) to `O=C(NC1CCCCC1)c1ccc(-c2ccccc2)cc1`, the “hERG current change (%, negative = inhibition) at 10uM” value rises from -77.2% to 22.5%.

Going from `COc1ccc(C(=O)CSc2nnc(NC(=O)C3CC(=O)N(c4cccc(OC)c4)C3)s2)cc1` (stereo not shown) to `COc1ccc(N(C)S(=O)(=O)c2cccc(C(=O)Nc3nc(C)c(C(C)=O)s3)c2)cc1`, the “hERG current change (%, negative = inhibition) at 10uM” value falls from 15.6% to 7.14%.

Compared with `CCN1CCN(C(=S)NC(CC(=O)c2ccccc2)c2ccccc2)CC1` (stereo not shown), `O=P(O)(O)CCP(=O)(c1ccccc1)c1ccccc1` is higher in “hERG current change (%, negative = inhibition) at 10uM” value: -28.4% for the first, 9.46% for the second.

Compared with `CCOc1ccc(OCCNC2CCCC2)cc1`, `Cc1ccc(C(C)C)cc1OCC(=O)NC1CCCCCCC1` is higher in “hERG current change (%, negative = inhibition) at 10uM” value: -20.5% for the first, -2.45% for the second.

Compared with `COC(=O)Cc1ccc(NC(=S)NCc2ccccc2)cc1`, `O=C(COC(=O)c1ccc(O)cc1O)NC(=O)NCc1ccccc1` is lower in “hERG current change (%, negative = inhibition) at 10uM” value: 0.941% for the first, -6.4% for the second.

Compared with `C=CCC(NCc1ccccc1)c1ccc(C)o1.Cl` (stereo not shown), `Cc1ccc(C2=NOC(C)(c3nnc(-c4ccccc4)o3)C2)cc1` (stereo not shown) is lower in “hERG current change (%, negative = inhibition) at 10uM” value: 1.05% for the first, -12.3% for the second.

Going from `Cc1c(O)ccc(-c2n[nH]c(C(=O)O)c2-c2nc3ccccc3s2)c1O` to `C/C(=N/NC(=O)CSc1nc2ccccc2s1)c1ccncc1`, the “hERG current change (%, negative = inhibition) at 10uM” value falls from 10.9% to -24%.

Compared with `CC(C)(C)c1cc(CCC(=O)NCc2ccccn2)cc(C(C)(C)C)c1O`, `CCOC(=O)c1cccc(NC(=O)CCc2nnc3ccc(N4CCN(C)CC4)nn23)c1` is higher in “hERG current change (%, negative = inhibition) at 10uM” value: -10.1% for the first, 9.48% for the second.

First: CCOC(=O)CSC1=C(C#N)C(c2ccco2)C(C(=O)OCc2ccccc2)=C(C)N1 (stereo not shown)
Second: O=C(OCC1OC(n2ccc(=O)[nH]c2=O)C(O)C1OC(=O)c1ccccc1)c1ccccc1 (stereo not shown)
The “hERG current change (%, negative = inhibition) at 10uM” value of the first is higher: 2.75% for the first, -67.9% for the second.

Compared with `COc1ccc2nc(C)cc(NCCN3CCOCC3)c2c1`, `O=S(=O)(CCN1CCOCC1)c1ccc(Cl)cc1` is lower in “hERG current change (%, negative = inhibition) at 10uM” value: 15.4% for the first, 12.6% for the second.

Compared with `CCN1C(=O)c2cccc3c(S(=O)(=O)Nc4c(C)n(C)n(-c5ccccc5)c4=O)ccc1c23`, `O=C1c2ccccc2C(=O)N1CCCc1nc(-c2ccc(Cl)cc2)no1` is higher in “hERG current change (%, negative = inhibition) at 10uM” value: -2.58% for the first, 10.4% for the second.

Going from `CCc1ccc(-c2cc(C)no2)cc1S(=O)(=O)N1CCN(c2ccccc2OC)CC1` to `COc1ccc(-c2cc(C(=O)N3CCN(c4ccc(F)cc4)CC3)no2)cc1`, the “hERG current change (%, negative = inhibition) at 10uM” value rises from 16% to 21.1%.

Going from `CCn1c(-c2cccnc2Cl)nc2ccccc21` to `O=C1CSC(c2ccccc2)N1Cc1ccccn1` (stereo not shown), the “hERG current change (%, negative = inhibition) at 10uM” value rises from -6.21% to 14.9%.

First: Cn1cc(/C=N/NC(=O)COc2ccccc2[N+](=O)[O-])c2ccccc21
Second: Cc1ccccc1OP(N)(=O)Oc1ccccc1C
The “hERG current change (%, negative = inhibition) at 10uM” value of the first is higher: 23.3% for the first, 21.8% for the second.

First: CC(=NCc1ccc2c(c1)OCO2)c1c(O)n(-c2ccccc2)c(=O)[nH]c1=O
Second: CN(Cc1ccc2c(c1)OCO2)C(=O)c1cc(-c2ccccc2)c(N2CCOCC2)s1
The “hERG current change (%, negative = inhibition) at 10uM” value of the first is lower: -11.8% for the first, 9.1% for the second.

First: NS(=O)(=O)c1ccc(CCNC(=O)C(=O)NCC2OCCN2C(=O)c2ccc3c(c2)OCO3)cc1 (stereo not shown)
Second: O=C1COc2ccc(S(=O)(=O)NCCc3ccc(Cl)cc3)cc2N1
The “hERG current change (%, negative = inhibition) at 10uM” value of the first is higher: 6.42% for the first, -8.83% for the second.

Going from `Cc1noc(C)c1C(=O)Nc1sc2c(c1C(N)=O)CCCCC2` to `Cc1ccc(C(C)C)c(OCc2nn(CC(=O)c3ccc(Cl)cc3)c3[n+]2CCCCC3)c1.[Br-]`, the “hERG current change (%, negative = inhibition) at 10uM” value falls from -0.683% to -73.3%.

Going from `COc1cccc(-c2csc(N3CCN(C(=S)Nc4ccccc4Cl)CC3)n2)c1` to `O=C(O)/C=C\c1ccccc1Oc1cccc(Cl)c1`, the “hERG current change (%, negative = inhibition) at 10uM” value rises from 0.373% to 7.3%.

Going from `COc1cccc(CN(C)C(=O)CCNC(=O)c2ccc(Br)cc2)c1` to `COC(=O)c1ccc(COc2cccc3c2CCN(Cc2cccc(C)c2)C3=O)o1`, the “hERG current change (%, negative = inhibition) at 10uM” value falls from 0.786% to -3.41%.

Going from `CCCCOC(=O)c1cccnc1` to `O=C(O)CSc1ncccc1C(=O)O`, the “hERG current change (%, negative = inhibition) at 10uM” value falls from 8.53% to -53.7%.

Compared with `CCCCN(C(=O)c1cccc(S(=O)(=O)N2CCN(C)CC2)c1)c1c(N)n(CCC)c(=O)[nH]c1=O`, `CCN1CCN(S(=O)(=O)c2ccc3[nH]c(=O)oc3c2)CC1` is higher in “hERG current change (%, negative = inhibition) at 10uM” value: 1.67% for the first, 2.48% for the second.

Compared with `COc1ccc(C(=O)C2CCCN(Cc3ccc4nonc4c3)C2)c(OC)c1` (stereo not shown), `O=C(c1cc(COc2ccc(F)cc2Cl)on1)N1CCC(c2ccncc2)CC1` is lower in “hERG current change (%, negative = inhibition) at 10uM” value: -66.7% for the first, -72.5% for the second.

Compared with `C=CC(C)(O)CCC=C(C)C` (stereo not shown), `CN(C)c1ncc(C(=O)O)cn1` is lower in “hERG current change (%, negative = inhibition) at 10uM” value: 13.2% for the first, 12.8% for the second.

Compared with `O=C(NC(=S)Nc1ccc(S(=O)(=O)Nc2ncccn2)cc1)c1cccc(Br)c1`, `N#C/C(=C\c1ccc(OCCN2CCOCC2)cc1)C(=O)Nc1ccc(S(N)(=O)=O)cc1` is lower in “hERG current change (%, negative = inhibition) at 10uM” value: 24.7% for the first, 13.7% for the second.

Going from `O=C(Cc1ncc(C(F)(F)F)cc1Cl)NNc1cccc(F)n1` to `O=C(Nc1ccc(F)cc1)Nc1ccc(Cl)cn1`, the “hERG current change (%, negative = inhibition) at 10uM” value falls from 28.9% to 0.00818%.

Going from `CN(CC(=O)Nc1cccc(F)c1)CC(=O)NC(c1ccccc1)c1ccccc1` to `c1ccc(Cn2nnnc2C(c2ccccn2)N2CCN(c3ccccc3)CC2)cc1` (stereo not shown), the “hERG current change (%, negative = inhibition) at 10uM” value rises from -29.3% to -22.4%.

Going from `CC(C)c1ccc(CN(C(=O)/C=C/c2ccco2)C2CCS(=O)(=O)C2)cc1` (stereo not shown) to `CN(C)S(=O)(=O)c1ccc(Cl)c(NC(=O)CN2C(=O)NC3(CCc4ccccc43)C2=O)c1` (stereo not shown), the “hERG current change (%, negative = inhibition) at 10uM” value falls from -13.6% to -18%.

Going from `O=C(C[n+]1cc(-c2ccc(Cl)cc2)n2c1CCC2)Nc1nc(-c2ccc(F)cc2)cs1.[Cl-]` to `COc1ccccc1N=c1scc(-c2ccc3c(c2)NC(=O)CO3)n1CC1CCCO1` (stereo not shown), the “hERG current change (%, negative = inhibition) at 10uM” value rises from -48.4% to -24%.

Going from `O=C(O)c1ccc(Nc2cc(Cl)c3nonc3c2[N+](=O)[O-])cc1` to `Cc1cccc(N2CCN(C(=O)c3noc4c3COc3ccc(C)cc3-4)CC2C)c1` (stereo not shown), the “hERG current change (%, negative = inhibition) at 10uM” value falls from 18.1% to -2.64%.

Going from `CS(=O)(=O)Nc1ccc2c(c1)nc1n2CCOC1` to `Cc1ccc2c(c1)N(CC(=O)N1CCC(C)CC1)C(=O)c1cccnc1O2`, the “hERG current change (%, negative = inhibition) at 10uM” value falls from -3.18% to -11.2%.

Going from `CC(=O)N1CCC(=NNC(=O)c2cccs2)CC1` to `O=C(CCCN1C(=O)c2ccccc2C1=O)Nc1ccccc1C(=O)N1CCOCC1`, the “hERG current change (%, negative = inhibition) at 10uM” value rises from 1.98% to 6.83%.

First: CC1(O)C(=O)C=C2C=C(c3ccsc3)OC=C2C1=O (stereo not shown)
Second: COc1ccc(-c2nnc(-c3cccs3)o2)cc1OC
The “hERG current change (%, negative = inhibition) at 10uM” value of the first is higher: 2.24% for the first, -19% for the second.

First: Cc1ccc2c(c1)c(/C=C/c1cc[n+](C)cc1)c(C)n2C.[I-]
Second: Cc1nc(NC(=O)CSc2ccccc2N)sc1C
The “hERG current change (%, negative = inhibition) at 10uM” value of the first is lower: -10.9% for the first, -8.67% for the second.

From paper PMC4336329 (PLoS ONE, 2015)
